This is one part of the list. Cleavage of a single-stranded DNA pool by Rep nickase domains was read by sequencing (1 h at 37 °C, 3 µM enzyme); the outer parts of the 90-letter strands are left off. Uncut reads are compared with the no-enzyme pool on a log2 scale; the lower, the more was cut; hits are not called. Shares of all reads are compared; values above 0 arise when much of the pool is cut.
Assays:
Test in all cases: uncleaved DNA left, log2 of reads against the no-enzyme library (log2 ratio); higher = less cleavage (more negative = more Rep cleavage of the k-mer); sequences stand for … in CTCGTCCG…ACCGGAGA
[1] = system: T1, Rep nickase domain of Muscovy duck circovirus
T1 sequence (protein, residues 1-111, tag omitted): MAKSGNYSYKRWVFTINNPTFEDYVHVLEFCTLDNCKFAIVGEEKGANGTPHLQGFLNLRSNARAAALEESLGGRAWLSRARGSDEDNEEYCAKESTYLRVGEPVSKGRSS
Experimental: (§1)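 A pool of 90-nt single-stranded DNAs with seven random bases just before the constant AC of the nick site (name = the seven bases) was cut by 3 µM recombinant His6-SUMO-tagged Rep nickase domain (300 nM DNA, 50 mM HEPES pH 8.0, 50 mM NaCl, 1 mM MnCl2, 1 h, 37 °C, three replicates). Uncut DNA was amplified and sequenced.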

[2] = system: T2, Rep nickase domain of banana bunchy top virus
T2 sequence (protein, residues 1-94, tag omitted): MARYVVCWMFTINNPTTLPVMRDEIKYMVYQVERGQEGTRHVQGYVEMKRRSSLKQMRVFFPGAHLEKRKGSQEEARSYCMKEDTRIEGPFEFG
Experimental: as §1

[3] = system: T3, Rep nickase domain of cabbage leaf curl virus
T3 sequence (protein, residues 1-116, tag omitted): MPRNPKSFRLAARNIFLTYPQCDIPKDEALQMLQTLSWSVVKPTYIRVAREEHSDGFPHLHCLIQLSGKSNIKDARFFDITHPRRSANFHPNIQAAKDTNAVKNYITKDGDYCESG
Experimental: as §1

[4] = system: T4, Rep nickase domain of chickpea chlorotic dwarf virus
T4 sequence (protein, residues 1-124, tag omitted): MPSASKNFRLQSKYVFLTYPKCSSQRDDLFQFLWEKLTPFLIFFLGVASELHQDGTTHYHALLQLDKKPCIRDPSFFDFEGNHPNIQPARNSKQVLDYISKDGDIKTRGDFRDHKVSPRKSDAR
Experimental: as §1

[5] = system: T5, Rep nickase domain of faba bean necrotic yellows virus
T5 sequence (protein, residues 1-98, tag omitted): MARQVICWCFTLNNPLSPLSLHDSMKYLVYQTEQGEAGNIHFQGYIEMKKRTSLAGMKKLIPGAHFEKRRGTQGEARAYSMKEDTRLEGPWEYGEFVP
Experimental: as §1

[6] = system: T6, Rep nickase domain of maize striate mosaic virus
T6 sequence (protein, residues 1-117, tag omitted): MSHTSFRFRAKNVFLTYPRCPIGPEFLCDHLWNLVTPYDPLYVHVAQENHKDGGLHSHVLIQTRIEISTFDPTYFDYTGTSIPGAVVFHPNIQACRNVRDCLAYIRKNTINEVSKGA
Experimental: as §1

[7] = system: T7, Rep nickase domain of porcine circovirus 2
T7 sequence (protein, residues 2-116, tag omitted): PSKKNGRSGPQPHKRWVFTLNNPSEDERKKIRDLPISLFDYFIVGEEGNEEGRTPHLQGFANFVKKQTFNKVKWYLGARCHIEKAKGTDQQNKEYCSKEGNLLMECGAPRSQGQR
Experimental: as §1

[8] = system: T8, Rep nickase domain of tomato golden mosaic virus
T8 sequence (protein, residues 1-124, tag omitted): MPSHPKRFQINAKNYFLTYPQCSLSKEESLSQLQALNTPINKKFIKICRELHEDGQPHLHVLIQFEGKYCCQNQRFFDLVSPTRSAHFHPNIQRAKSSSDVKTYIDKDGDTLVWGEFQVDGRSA
Experimental: as §1

[9] = system: T9, Rep nickase domain of tomato yellow leaf curl virus
T9 sequence (protein, residues 1-136, tag omitted): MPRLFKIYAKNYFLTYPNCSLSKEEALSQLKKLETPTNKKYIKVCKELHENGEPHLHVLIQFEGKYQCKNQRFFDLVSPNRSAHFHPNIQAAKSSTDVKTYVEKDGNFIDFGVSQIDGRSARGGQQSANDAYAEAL
Experimental: as §1

[10] = system: T10, Rep nickase domain of wheat dwarf virus
T10 sequence (protein, residues 1-137, tag omitted): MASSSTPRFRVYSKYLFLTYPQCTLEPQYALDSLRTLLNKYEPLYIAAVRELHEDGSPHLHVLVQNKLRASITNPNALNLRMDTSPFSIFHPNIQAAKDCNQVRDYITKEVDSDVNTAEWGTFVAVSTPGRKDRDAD
Experimental: as §1

Sequence	uncleaved DNA left (log2) [1]	uncleaved DNA left (log2) [2]	uncleaved DNA left (log2) [3]	uncleaved DNA left (log2) [4]	uncleaved DNA left (log2) [5]	uncleaved DNA left (log2) [6]	uncleaved DNA left (log2) [7]	uncleaved DNA left (log2) [8]	uncleaved DNA left (log2) [9]	uncleaved DNA left (log2) [10]
CTCGGAG	-0.101	-0.0329	-0.672	-0.483	-0.0426	-0.858	0.163	-0.147	0.144	-0.107
TTTGCTA	-0.0691	-0.0697	-0.437	-1.04	0.0689	-1.16	-0.15	-0.0994	0.00882	-0.0957
CTAAGAG	0.126	0.158	-0.478	-0.53	0.0825	-1.05	0.147	0.0937	0.129	0.0132
TTCGCAA	0.0429	0.0725	0.0585	-0.258	-0.0833	-0.68	-0.000626	-0.0568	0.051	-0.039
CATTGGC	-0.0696	-0.186	-0.883	-0.612	0.0476	-1.29	0.0871	-0.193	0.0289	-0.163
TGCCAAT	-0.117	-0.0981	0.0167	-0.0511	-0.0642	-0.299	-0.158	-0.17	0.13	-0.0324
TAGTCAC	0.0403	-0.0205	0.0314	-0.198	-0.0967	-0.226	-3.04	-0.00919	0.156	0.0767
CTATTGA	0.00751	-0.0456	-0.497	-0.644	0.0448	-1.1	0.0575	-0.000664	-0.0541	-0.0325
CTTTTGT	-0.376	-0.118	-0.383	-0.958	-0.0813	-1.04	-0.514	-0.00534	0.0396	-0.0899
TATTCTC	-3.63	-2.98	-0.231	-0.85	-0.1	-0.619	-3.21	-0.173	-0.0163	-0.268
GTGGACA	0.117	0.156	1	2.18	0.00185	2.41	0.375	0.254	0.254	0.26
GGCTGCA	0.0784	-0.175	0.07	0.682	-0.129	0.72	-0.0417	-0.00546	-0.0999	-0.148
CGGGACT	-0.0253	0.154	0.856	1.99	0.000183	2.33	0.209	0.0632	-0.0173	0.0646
TATTTCT	-3.84	-3.95	-2.15	-3.06	-0.306	-0.805	-3.99	-0.721	0.0834	-0.759
GGCCAGA	-0.112	0.0274	0.533	1.43	-0.135	1.85	0.0112	-0.107	-0.0273	-0.0127
AGTTACA	0.117	-0.028	-0.0101	-1.88	0.0956	0.145	-0.341	0.0249	0.154	0.131
GTCCGCG	-0.0223	0.0166	-0.411	-0.24	-0.0564	-0.328	0.0519	0.0482	-0.128	-0.0937
CTTTAAC	-0.131	-0.0629	-0.46	-2.24	-0.122	-0.925	-0.0524	-0.161	-0.0651	-0.0835
AAAGACG	0.0364	0.19	-0.324	-0.393	0.0546	-1.1	0.207	0.0118	0.121	0.113
GTATAGC	0.0599	0.152	0.217	0.544	0.101	0.043	0.158	0.047	0.0927	0.00245
TCGCTAA	-0.0121	0.0498	0.0146	-0.309	0.0476	-0.487	-0.0935	0.0573	-0.00576	0.00453
TAGAACG	-0.108	0.0108	-0.893	-0.879	-0.0537	-1.33	0.0945	-0.0616	-0.0691	-0.167
ATTACTG	-0.0391	-0.0923	-0.129	0.000743	-0.0225	0.602	0.0103	-0.105	-0.162	-0.00373
CCGGGCG	-0.0904	-0.154	-0.733	-0.0789	-0.129	-0.488	0.079	-0.0703	-0.033	-0.134
AACAGTC	0.00519	0.116	-0.157	-0.451	0.0241	-0.974	0.231	0.116	0.0929	-0.015
CCAAGGC	-0.112	-0.0698	-0.186	0.00634	-0.0645	-0.872	-0.0341	-0.0718	-0.0714	-0.191
CCAAGCT	0.116	0.0282	0.308	1.32	0.0256	1.55	0.0476	0.0259	-0.105	0.0858
TATGGGT	0.11	-0.0441	0.183	0.949	0.0353	1.35	0.141	0.105	0.0124	0.00169
TCCCTGG	0.222	0.105	0.476	0.958	-0.0899	1	0.277	0.204	-0.0155	0.071
CGCGGAC	-0.0925	-0.109	0.512	1.35	-0.0302	1.56	0.0367	-0.108	0.0182	-0.0943

Reference: the supplement of paper PMC7826260
